# Source: article PMC11335210
# By UniProt entry, the sequences of proteins in these tests, tags left out.
# UniProt Q6PDN3: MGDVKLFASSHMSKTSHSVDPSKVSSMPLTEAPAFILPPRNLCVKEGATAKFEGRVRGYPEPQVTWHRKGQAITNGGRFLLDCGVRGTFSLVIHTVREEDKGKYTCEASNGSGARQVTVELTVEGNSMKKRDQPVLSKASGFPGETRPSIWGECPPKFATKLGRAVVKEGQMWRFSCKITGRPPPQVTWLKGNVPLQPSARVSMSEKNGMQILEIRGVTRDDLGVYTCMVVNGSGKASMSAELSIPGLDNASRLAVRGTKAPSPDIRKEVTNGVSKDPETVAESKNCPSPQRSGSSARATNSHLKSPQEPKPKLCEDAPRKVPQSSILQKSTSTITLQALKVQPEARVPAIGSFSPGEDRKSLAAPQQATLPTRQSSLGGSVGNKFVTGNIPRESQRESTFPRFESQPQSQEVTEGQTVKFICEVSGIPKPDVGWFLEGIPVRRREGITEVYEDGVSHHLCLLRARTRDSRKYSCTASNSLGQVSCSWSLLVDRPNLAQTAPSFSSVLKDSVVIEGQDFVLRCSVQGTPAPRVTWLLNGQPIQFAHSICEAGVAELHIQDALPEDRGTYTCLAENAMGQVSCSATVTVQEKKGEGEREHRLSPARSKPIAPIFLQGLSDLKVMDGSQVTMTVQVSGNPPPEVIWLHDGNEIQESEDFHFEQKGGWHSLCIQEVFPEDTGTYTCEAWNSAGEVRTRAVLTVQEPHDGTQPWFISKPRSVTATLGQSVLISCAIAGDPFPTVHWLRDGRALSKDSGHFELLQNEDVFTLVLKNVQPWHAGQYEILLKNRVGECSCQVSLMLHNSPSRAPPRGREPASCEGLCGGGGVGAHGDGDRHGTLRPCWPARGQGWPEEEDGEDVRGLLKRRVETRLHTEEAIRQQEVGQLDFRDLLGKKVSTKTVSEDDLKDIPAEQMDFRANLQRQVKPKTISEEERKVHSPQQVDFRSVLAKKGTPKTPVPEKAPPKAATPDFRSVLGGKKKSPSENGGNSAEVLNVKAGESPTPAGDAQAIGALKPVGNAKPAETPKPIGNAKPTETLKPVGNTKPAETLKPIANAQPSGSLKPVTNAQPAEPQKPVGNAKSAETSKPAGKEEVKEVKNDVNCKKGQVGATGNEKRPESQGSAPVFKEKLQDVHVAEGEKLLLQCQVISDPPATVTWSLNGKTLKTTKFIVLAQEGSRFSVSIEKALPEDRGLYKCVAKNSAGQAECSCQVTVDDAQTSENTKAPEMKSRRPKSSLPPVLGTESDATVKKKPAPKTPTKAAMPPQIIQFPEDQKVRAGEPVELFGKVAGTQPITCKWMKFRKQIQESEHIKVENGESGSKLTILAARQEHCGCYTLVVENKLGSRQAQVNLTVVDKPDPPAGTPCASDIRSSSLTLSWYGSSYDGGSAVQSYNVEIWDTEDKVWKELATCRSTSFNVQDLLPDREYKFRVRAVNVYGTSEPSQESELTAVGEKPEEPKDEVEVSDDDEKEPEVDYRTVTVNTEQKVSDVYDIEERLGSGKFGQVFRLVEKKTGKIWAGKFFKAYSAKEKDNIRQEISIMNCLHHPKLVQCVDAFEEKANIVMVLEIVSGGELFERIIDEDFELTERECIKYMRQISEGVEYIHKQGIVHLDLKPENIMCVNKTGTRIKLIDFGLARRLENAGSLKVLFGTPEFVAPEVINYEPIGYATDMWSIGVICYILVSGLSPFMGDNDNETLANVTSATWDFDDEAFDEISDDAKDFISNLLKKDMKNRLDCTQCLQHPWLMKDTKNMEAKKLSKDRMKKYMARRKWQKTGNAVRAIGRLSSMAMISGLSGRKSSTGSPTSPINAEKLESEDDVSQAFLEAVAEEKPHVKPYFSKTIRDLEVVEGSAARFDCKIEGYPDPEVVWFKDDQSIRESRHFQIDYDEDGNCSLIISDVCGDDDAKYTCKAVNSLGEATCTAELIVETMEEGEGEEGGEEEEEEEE
# UniProt P70336: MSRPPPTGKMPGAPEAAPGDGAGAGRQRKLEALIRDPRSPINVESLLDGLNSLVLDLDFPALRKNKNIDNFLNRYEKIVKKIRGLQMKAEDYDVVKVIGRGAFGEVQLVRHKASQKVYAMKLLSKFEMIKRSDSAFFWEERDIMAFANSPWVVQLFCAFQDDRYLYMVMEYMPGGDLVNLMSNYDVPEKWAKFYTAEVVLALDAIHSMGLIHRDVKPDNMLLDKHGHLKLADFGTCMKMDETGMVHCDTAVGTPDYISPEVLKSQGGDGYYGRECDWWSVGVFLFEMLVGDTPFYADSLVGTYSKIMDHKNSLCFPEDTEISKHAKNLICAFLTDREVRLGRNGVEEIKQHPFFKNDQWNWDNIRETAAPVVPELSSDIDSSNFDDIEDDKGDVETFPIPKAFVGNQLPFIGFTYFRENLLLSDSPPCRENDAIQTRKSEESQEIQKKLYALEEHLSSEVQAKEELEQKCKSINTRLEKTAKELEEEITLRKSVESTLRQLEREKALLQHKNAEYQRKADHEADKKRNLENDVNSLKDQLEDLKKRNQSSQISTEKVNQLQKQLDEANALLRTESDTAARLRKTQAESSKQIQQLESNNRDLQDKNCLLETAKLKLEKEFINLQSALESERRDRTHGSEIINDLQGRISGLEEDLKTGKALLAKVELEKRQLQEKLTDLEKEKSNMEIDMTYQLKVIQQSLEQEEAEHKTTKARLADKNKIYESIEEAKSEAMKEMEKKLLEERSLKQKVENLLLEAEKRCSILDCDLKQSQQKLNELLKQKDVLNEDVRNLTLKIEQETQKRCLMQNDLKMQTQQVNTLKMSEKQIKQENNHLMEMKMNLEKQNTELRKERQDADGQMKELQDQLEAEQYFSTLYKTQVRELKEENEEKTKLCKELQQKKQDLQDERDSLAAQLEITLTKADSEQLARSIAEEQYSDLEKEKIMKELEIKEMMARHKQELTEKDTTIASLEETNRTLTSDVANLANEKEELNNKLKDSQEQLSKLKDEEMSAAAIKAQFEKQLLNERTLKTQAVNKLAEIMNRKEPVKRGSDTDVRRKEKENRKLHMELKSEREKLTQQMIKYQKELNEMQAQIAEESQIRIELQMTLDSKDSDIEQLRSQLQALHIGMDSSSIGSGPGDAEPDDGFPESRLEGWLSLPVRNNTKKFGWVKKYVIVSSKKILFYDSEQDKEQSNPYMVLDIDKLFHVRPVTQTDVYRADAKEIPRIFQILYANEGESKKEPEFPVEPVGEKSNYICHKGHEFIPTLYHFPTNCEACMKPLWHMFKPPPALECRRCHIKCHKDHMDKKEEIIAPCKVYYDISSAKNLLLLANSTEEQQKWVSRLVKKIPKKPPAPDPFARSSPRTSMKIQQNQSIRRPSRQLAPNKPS
# These are yes or no findings as the source states them, for the method shown. Binding seen in cells or lysates may run through a third protein. Some results given as binding are weak or reduced against the parent protein; the word gives no strength. For some of these results: Tags and fused reporters may be left off the sequences shown.
# Columns and labels:
# [1] = target: T1, human PKP4 N-terminally tagged with EGFP (EGFP-PKP4-WT) (human) (UniProt Q99569); experiment: co-IP; GFP-Trap Agarose on lysates of PKP4-KO + GFP-PKP4 (Rescue) keratinocytes, WT + GFP cells as control; IP buffer 20 mM Tris-HCl pH 7.5, 137 mM NaCl, 2 mM EDTA, 10% glycerol, 1% NP-40; 1 h at 4 °C; western blot
# T1 sequence: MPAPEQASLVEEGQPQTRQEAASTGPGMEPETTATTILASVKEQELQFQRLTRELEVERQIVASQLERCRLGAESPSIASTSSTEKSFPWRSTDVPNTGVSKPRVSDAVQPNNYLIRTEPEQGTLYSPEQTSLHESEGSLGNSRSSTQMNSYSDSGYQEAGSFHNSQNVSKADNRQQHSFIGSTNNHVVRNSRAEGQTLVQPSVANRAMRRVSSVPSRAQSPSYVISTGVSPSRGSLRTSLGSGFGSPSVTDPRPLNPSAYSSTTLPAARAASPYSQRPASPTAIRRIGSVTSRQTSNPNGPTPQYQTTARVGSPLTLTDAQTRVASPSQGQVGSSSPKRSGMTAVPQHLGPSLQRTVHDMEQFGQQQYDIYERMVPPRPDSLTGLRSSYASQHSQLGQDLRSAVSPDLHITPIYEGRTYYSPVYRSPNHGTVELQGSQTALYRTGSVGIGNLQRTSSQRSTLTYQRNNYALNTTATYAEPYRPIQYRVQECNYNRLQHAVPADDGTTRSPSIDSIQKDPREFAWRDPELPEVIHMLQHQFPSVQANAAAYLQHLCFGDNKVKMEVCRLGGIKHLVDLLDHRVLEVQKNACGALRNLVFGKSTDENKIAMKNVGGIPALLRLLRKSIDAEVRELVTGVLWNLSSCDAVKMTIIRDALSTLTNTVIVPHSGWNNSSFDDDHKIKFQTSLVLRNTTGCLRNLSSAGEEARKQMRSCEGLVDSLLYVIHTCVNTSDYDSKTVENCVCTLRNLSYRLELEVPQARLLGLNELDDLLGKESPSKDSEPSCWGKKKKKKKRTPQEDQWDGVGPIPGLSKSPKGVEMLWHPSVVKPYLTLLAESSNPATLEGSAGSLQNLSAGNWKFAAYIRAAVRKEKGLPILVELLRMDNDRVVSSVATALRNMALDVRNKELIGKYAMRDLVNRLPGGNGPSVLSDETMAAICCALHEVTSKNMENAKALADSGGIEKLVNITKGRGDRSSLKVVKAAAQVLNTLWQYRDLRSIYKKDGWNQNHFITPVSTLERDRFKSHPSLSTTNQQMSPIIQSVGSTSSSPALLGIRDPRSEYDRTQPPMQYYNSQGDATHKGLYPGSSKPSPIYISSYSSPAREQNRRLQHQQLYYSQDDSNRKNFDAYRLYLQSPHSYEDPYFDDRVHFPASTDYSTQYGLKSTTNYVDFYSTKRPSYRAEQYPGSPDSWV
# [2] = target: T2, Plakophilin 4 (PKP4), endogenous in mouse keratinocytes (mouse (endogenous in mouse keratinocytes)) (UniProt Q68FH0); experiment: co-IP; anti-PKP4 antibody and Protein A agarose on lysates of WT keratinocytes, PKP4-KO cells in parallel as control; IP buffer 20 mM Tris-HCl pH 7.5, 137 mM NaCl, 2 mM EDTA, 10% glycerol, 1% NP-40; overnight at 4 °C; western blot
# T2 sequence: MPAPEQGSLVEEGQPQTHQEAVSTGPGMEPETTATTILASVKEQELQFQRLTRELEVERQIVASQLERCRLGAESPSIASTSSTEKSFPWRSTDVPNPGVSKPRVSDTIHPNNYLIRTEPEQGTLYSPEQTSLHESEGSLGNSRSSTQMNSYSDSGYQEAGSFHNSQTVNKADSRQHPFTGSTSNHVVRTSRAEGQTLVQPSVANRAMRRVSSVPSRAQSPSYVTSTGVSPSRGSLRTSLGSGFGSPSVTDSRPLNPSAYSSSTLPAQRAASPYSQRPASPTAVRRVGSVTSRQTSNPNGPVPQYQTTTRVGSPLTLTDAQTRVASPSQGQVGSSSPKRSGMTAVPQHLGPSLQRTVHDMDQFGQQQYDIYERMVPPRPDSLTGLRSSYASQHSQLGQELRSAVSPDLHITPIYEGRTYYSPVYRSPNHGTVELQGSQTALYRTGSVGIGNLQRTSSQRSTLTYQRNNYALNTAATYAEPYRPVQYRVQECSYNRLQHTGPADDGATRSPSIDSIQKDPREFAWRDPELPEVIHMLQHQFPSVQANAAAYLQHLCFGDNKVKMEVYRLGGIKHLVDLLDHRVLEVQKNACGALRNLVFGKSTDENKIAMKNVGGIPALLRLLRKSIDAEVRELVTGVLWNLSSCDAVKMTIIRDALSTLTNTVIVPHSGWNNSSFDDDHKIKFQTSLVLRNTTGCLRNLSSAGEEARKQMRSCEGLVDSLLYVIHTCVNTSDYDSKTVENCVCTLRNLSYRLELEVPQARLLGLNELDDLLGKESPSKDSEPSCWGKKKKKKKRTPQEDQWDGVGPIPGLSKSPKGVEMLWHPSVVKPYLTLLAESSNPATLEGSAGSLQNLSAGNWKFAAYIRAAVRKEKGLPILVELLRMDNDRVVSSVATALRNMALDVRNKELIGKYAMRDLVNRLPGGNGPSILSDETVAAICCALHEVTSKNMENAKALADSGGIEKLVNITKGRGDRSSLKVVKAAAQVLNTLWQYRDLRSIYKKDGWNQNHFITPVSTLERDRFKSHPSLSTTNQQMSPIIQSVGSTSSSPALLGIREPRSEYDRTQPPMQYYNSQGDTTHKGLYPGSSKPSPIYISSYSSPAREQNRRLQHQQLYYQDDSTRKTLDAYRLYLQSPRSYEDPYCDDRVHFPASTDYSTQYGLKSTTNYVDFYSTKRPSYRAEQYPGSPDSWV
Substance,binding [1],binding [2]
myosin light chain kinase (MLCK) (from UniProt Q6PDN3 1-1941) (enzyme),binds,binds
ROCK2 (from UniProt P70336 1-1388) (enzyme),binds,binds
